From the supplement of paper PMC12217912
Some of the results follow. The full chains were built here from the parent and the listed change. Inactive controls read about 0.05.

B1: TEV protease; numbered along this chain (parent)
chain: MGESLFKGPRDYNPISSSICHLTNESDGHTTSLYGIGFGPFIITNKHLFRRNNGTLVVQSLHGVFKVKDTTTLQQHLVDGRDMIIIRMPKDFPPFPQKLKFREPQREERICLVTTNFQTKSMSSMVSDTSCTFPSGDGIFWKHWIQTKDGQCGSPLVSTRDGFIVGIHSASNFTNTNNYFTSVPKNFMELLTNQEAQQWVSGWRLNADSVLWGGHKVFMVKPEEPFQPVKEATQL

Variants of: B1
Experiment: raw area under fraction-flipped curve 0-4 h after induction (AUC4h, not background-subtracted), DNA-recorder readout of cleavage of the substrate (dimensionless); higher = more cleavage of the substrate by the protease variant
Conditions: temperature: 34 °C; time window: 0-4 h after rhamnose induction
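Note: Bxb1 expression induced with 0.2% (w/v) L-rhamnose at OD600 near 0.5, cultures sampled hourly, flipped fraction per protease–substrate barcode pair counted by paired-end Illumina sequencing.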

Variant | area with substrate CNLYFQS | area with substrate FNLYFQS | area with substrate HNLYFQS | area with substrate INLYFQS | area with substrate KNLYFQS | area with substrate LNLYFQS | area with substrate MNLYFQS | area with substrate SNLYFQS | area with substrate TNLYFQS | area with substrate WNLYFQS | area with substrate PNLYFQS | area with substrate QNLYFQS | area with substrate YNLYFQS | area with substrate VNLYFQS | area with substrate GNLYFQS | area with substrate NNLYFQS | area with substrate DNLYFQS | area with substrate RNLYFQS
MGESLFKGPRDYNPISSSICHLTNESDGHTTSLYGIGFGPFIITNKHLFRRNNGTLVVQSLHGVFKVKDTTTLQQHLVDGRDMIIIRMPKDFPPFPQKLKFREPQREERICLVTTNFQTKSMSSMVSDTSCTFPSGDGIFWKHWIQTKDGQCGSPLVSTRDGFIVGIHSASNFTNTNNYFTSVPKNFMELLTNQEAQQWVSGWRLNADSVLWGGHKVFMVKPEYPFQPVKEATQL [E224Y] | 0.0574 | 0.0606 | 0.0568 | 0.0495 | 0.0127 | 0.0641 | 0.0789 | 0.0659 | 0.0791 | 0.0464 |  |  |  |  |  |  |  | 
MGESLFKGPRDYNPISSSICHLTNESDGHTTSLYGIGFGPFIITNKHLFRRNNGTLVVQSLHGVFKVKDTTTLQQHLVDGRDMIIIRMPKDFPPFPQKLKFREPQREERICLVTTNFQTKSMSSMVSDTSCTFPSGDGIFWKHWIQTKDGQCGSPLVSTRDGFIVGIHSASNFTNTNNYFTSVPKNFMELLTNQEAQQWVSGWRLNADSVLWGGHKVFMVKPEEPFQPVKECTQL [A232C] | 0.0635 | 0.0619 |  | 0.0656 | 0.0844 | 0.0566 |  |  | 0.0697 | 0.0578 | 0.069 | 0.0622 | 0.0773 |  |  |  |  | 
MGESLFKGPRDYNPISSSICHLTNESDGHTTSLYGIGFGPFIITNKHLFRRNNGTLVVQSLHGVFKVKDTTTLQQHLVDGRDMIIIRMPKDFPPFPQKLKFREPQREERICLVTTNFQTKSMSSMVSDTSCTFPSGDGIFWKHWIQTKDGQCGSPLVSTRDGFIVGIHSASNFTNTNNYFTSVPKNFMELLTNQEAQQWVSGWRLNADSVLWGGHKVFMVKPEEPFQPVKEFTQL [A232F] | 0.0596 | 0.0704 | 0.0507 |  |  | 0.0793 | 0.0607 | 0.0634 | 0.06 | 0.083 |  |  |  | 0.0683 |  |  |  | 
MGESLFKGPRDYNPISSSICHLTNESDGHTTSLYGIGFGPFIITNKHLFRRNNGTLVVQSLHGVFKVKDTTTLQQHLVDGRDMIIIRMPKDFPPFPQKLKFREPQREERICLVTTNFQTKSMSSMVSDTSCTFPSGDGIFWKHWIQTKDGQCGSPLVSTRDGFIVGIHSASNFTNTNNYFTSVPKNFMELLTNQEAQQWVSGWRLNADSVLWGGHKVFMVKPEEPFQPVKEGTQL [A232G] | 0.0606 | 0.0731 | 0.0752 |  |  | 0.0644 | 0.0678 |  |  | 0.0602 |  | 0.0647 |  |  |  |  |  | 
MGESLFKGPRDYNPISSSICHLTNESDGHTTSLYGIGFGPFIITNKHLFRRNNGTLVVQSLHGVFKVKDTTTLQQHLVDGRDMIIIRMPKDFPPFPQKLKFREPQREERICLVTTNFQTKSMSSMVSDTSCTFPSGDGIFWKHWIQTKDGQCGSPLVSTRDGFIVGIHSASNFTNTNNYFTSVPKNFMELLTNQEAQQWVSGWRLNADSVLWGGHKVFMVKPEEPFQPVKEHTQL [A232H] | 0.0573 |  | 0.0746 |  |  |  | 0.0582 | 0.0549 | 0.0638 | 0.0845 |  |  |  |  | 0.0811 |  |  | 
MGESLFKGPRDYNPISSSICHLTNESDGHTTSLYGIGFGPFIITNKHLFRRNNGTLVVQSLHGVFKVKDTTTLQQHLVDGRDMIIIRMPKDFPPFPQKLKFREPQREERICLVTTNFQTKSMSSMVSDTSCTFPSGDGIFWKHWIQTKDGQCGSPLVSTRDGFIVGIHSASNFTNTNNYFTSVPKNFMELLTNQEAQQWVSGWRLNADSVLWGGHKVFMVKPEEPFQPVKEMTQL [A232M] | 0.0565 |  | 0.0582 | 0.067 | 0.0691 |  |  | 0.0765 |  |  | 0.0635 |  | 0.0753 | 0.0619 | 0.073 | 0.0643 |  | 
MGESLFKGPRDYNPISSSICHLTNESDGHTTSLYGIGFGPFIITNKHLFRRNNGTLVVQSLHGVFKVKDTTTLQQHLVDGRDMIIIRMPKDFPPFPQKLKFREPQREERICLVTTNFQTKSMSSMVSDTSCTFPSGDGIFWKHWIQTKDGQCGSPLVSTRDGFIVGIHSASNFTNTNNYFTSVPKNFMELLTNQEAQQWVSGWRLNADSVLWGGHKVFMVKPEEPFQPVKETTQL [A232T] | 0.0673 |  |  |  | 0.061 |  |  |  | 0.0684 | 0.0552 |  |  |  |  | 0.065 |  |  | 
MGESLFKGPRDYNPICSSICHLTNESDGHTTSLYGIGFGPFIITNKHLFRRNNGTLVVQSLHGVFKVKDTTTLQQHLVDGRDMIIIRMPKDFPPFPQKLKFREPQREERICLVTTNFQTKSMSSMVSDTSCTFPSGDGIFWKHWIQTKDGQCGSPLVSTRDGFIVGIHSASNFTNTNNYFTSVPKNFMELLTNQEAQQWVSGWRLNADSVLWGGHKVFMVKPEEPFQPVKEATQL [S16C] |  |  | 0.0636 | 0.0804 | 0.0593 | 0.0596 |  |  | 0.0668 | 0.0636 | 0.0497 |  | 0.0696 |  | 0.0683 | 0.0602 | 0.062 | 
MGESLFKGPRDYNPISSSICHLTNESDGHTTDLYGIGFGPFIITNKHLFRRNNGTLVVQSLHGVFKVKDTTTLQQHLVDGRDMIIIRMPKDFPPFPQKLKFREPQREERICLVTTNFQTKSMSSMVSDTSCTFPSGDGIFWKHWIQTKDGQCGSPLVSTRDGFIVGIHSASNFTNTNNYFTSVPKNFMELLTNQEAQQWVSGWRLNADSVLWGGHKVFMVKPEEPFQPVKEATQL [S32D] |  | 0.0557 | 0.0568 | 0.0589 | 0.0772 | 0.063 | 0.0613 |  | 0.0432 | 0.0488 | 0.0551 |  | 0.0618 | 0.0488 | 0.0612 | 0.046 | 0.077 | 0.0576
MGESLFKGPRDYNPISSSICHLTNESDGHTTSLYGIGFGPFIITNKHKFRRNNGTLVVQSLHGVFKVKDTTTLQQHLVDGRDMIIIRMPKDFPPFPQKLKFREPQREERICLVTTNFQTKSMSSMVSDTSCTFPSGDGIFWKHWIQTKDGQCGSPLVSTRDGFIVGIHSASNFTNTNNYFTSVPKNFMELLTNQEAQQWVSGWRLNADSVLWGGHKVFMVKPEEPFQPVKEATQL [L48K] |  | 0.0515 | 0.0594 | 0.0504 | 0.0591 | 0.0417 | 0.0495 | 0.0663 | 0.0547 | 0.0572 | 0.0633 | 0.0668 | 0.0524 |  |  | 0.0461 | 0.0563 | 
